# Assay results: the supplement of paper PMC6135742
# Values joined by “and” are separate entries in the source; they are usually repeats but may differ in a detail not shown here. Identical values can stand only once. Counter-ions that a name gives are not always drawn. ± gives the standard deviation of the averaged measurements. In all, about 2,600 compounds were measured (“total cell number (DAPI+ nuclei) relative to DMSO vehicle control”: median about -1.4, lowest 2% from about -23 on). The list shows a part of the results.
# System: jimpy (Plp1 jimpy) mouse iPSC-derived oligodendrocyte progenitor cells
# Experiment: total cell number (DAPI+ nuclei) relative to DMSO vehicle control (SDs above negative control mean); higher = more surviving cells
# Conditions: 10 µM; 3 days
# Procedure: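 Primary phenotypic screen of >3,000 bioactive compounds (Selleck L1700 and Sigma LO1280 libraries) at a single dose of 10 µM. Compounds were added to jimpy (Plp1 mutant) mouse iPSC-derived OPCs at the start of thyroid hormone-induced oligodendrocyte differentiation, one well per compound in 384-well plates. After 3 days cells were stained for MBP, Sox10 and DAPI and imaged with an Operetta system. MBP+ oligodendrocyte number and total cell number were expressed as the number of SDs above the mean of the DMSO negative control on the same plate (n=16 control wells per plate). Hits were defined as >=4 SD for oligodendrocytes and >=2 SD for total cells.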
row,SMILES,total cell number
1,CS(=O)(=O)c1cccc(CNc2nc(Nc3ccc4c(c3)CCC(=O)N4)ncc2C(F)(F)F)c1,-12.7 ± 3.8
2,COCCOc1cc2nc[nH]c(=O)c2cc1OCCOC,-1.64
3,S=C(Nc1ccccc1)Nc1nccs1 [1-Phenyl-3-(2-thiazolyl)-2-thiourea],-2.13
4,COc1cc2ncc(-c3ccccc3)nc2cc1OC [Tyrphostin AG 1296],-1.11
5,O=NO [Sodium Nitrite],-0.157
6,N[C@@H](Cn1ccc(=O)c(O)c1)C(=O)O [L-Mimosine from Koa hoale seeds],-0.942
7,COc1ccc(C(=O)Nc2sc3c(c2C(N)=O)CCCC3)cc1OC,-5.36
8,CC(=O)[C@@]1(O)CC[C@H]2[C@@H]3CCC4=CC(=O)CCC4=C3[C@@H](c3ccc(N(C)C)cc3)C[C@@]21C [Ulipristal],-4.47
9,CC(C)(Oc1ccc(Cl)cc1)C(=O)O [Clofibric Acid],1.93
10,COc1cc(Nc2ncc(F)c(Nc3ccc4c(n3)NC(=O)C(C)(C)O4)n2)cc(OC)c1OC [R406 (free base)],-10.1
11,COc1cc(Nc2ncc(F)c(Nc3ccc4c(n3)NC(=O)C(C)(C)O4)n2)cc(OC)c1OC,-9.31
12,CS(=O)(=O)CCNCc1ccc(-c2ccc3ncnc(Nc4ccc(OCc5cccc(F)c5)c(Cl)c4)c3c2)o1,-17.3
13,C=CC(=O)Nc1cccc(Nc2nc(Nc3ccc(N4CCN(C(C)=O)CC4)cc3OC)ncc2C(F)(F)F)c1,-15.5
14,Nc1ccc(-c2nc3ccc(-c4nc5ccc(N)cc5[nH]4)cc3[nH]2)cc1,-3.19
15,Cn1ccnc1S [Methimazole],-0.188
16,Nc1c(Br)cc(Br)cc1CN[C@H]1CC[C@H](O)CC1 [Ambroxol HCl],1.91
17,CN1CCc2ccccc2Cc2[nH]c3ccccc3c2CC1,-0.107
18,CC(C)(Sc1cc(C(C)(C)C)c(O)c(C(C)(C)C)c1)Sc1cc(C(C)(C)C)c(O)c(C(C)(C)C)c1 [Probucol],-3.24
19,COc1ccccc1N1CCN(CC(O)COc2cccc3ccccc23)CC1 (stereo unspecified) [Naftopidil dihydrochloride],-2.31
20,COc1ccccc1N1CCN(CC(O)COc2cccc3ccccc23)CC1 (stereo unspecified) [Naftopidil DiHCl],-2.28
21,COc1ccccc1N1CCN(CC(O)COc2cccc3ccccc23)CC1 (stereo unspecified) [Naftopidil],0.247
22,CN1CCC(=C2c3ccccc3CC(=O)c3sccc32)CC1 [Ketotifen Fumarate],-2.3
23,CN1CCC(=C2c3ccccc3CC(=O)c3sccc32)CC1 [Ketotifen fumarate],-3.49
24,Nc1nc(N)c2nc(-c3cccc(O)c3)cnc2n1,-7.92
25,CCCN(CCC)C(=O)C(CCC(=O)O)NC(=O)c1ccccc1 (stereo unspecified) [Proglumide],-0.695
26,O=C(O)CC[C@H]1CC[C@@](c2cc(F)ccc2F)(S(=O)(=O)c2ccc(Cl)cc2)CC1,0.0291

row,SMILES,total cell number
1,O=c1ccc2ccc(O)c(O)c2o1 [Daphnetin],-1.17 ± 0.77
2,N#CC(c1ccc(Cl)cc1)c1c(Cl)cc(-n2ncc(=O)[nH]c2=O)cc1Cl (stereo unspecified) [Diclazuril],1.78
3,COc1cc(OC)c(C(=O)CCCN2CCCC2)c(OC)c1 [Buflomedil HCl],3.75
4,CC(=O)NCCc1c[nH]c2ccc(O)cc12 [N-Acetyl-5-hydroxytryptamine],-2.46
5,CC(C)(C)C(=O)OCOP(=O)(COCCn1cnc2c(N)ncnc21)OCOC(=O)C(C)(C)C [Adefovir Dipivoxil],-13.3
6,CNC(CC(=O)O)C(=O)O [NMDA (N-Methyl-D-aspartic acid)],-1.67
7,CN1CCc2cccc3c2[C@H]1Cc1ccc(O)c(O)c1-3 [Apomorphine hydrochloride hemihydrate],-6.53
8,C[C@H](NC(=O)Cc1cc(F)cc(F)c1)C(=O)N[C@H](C(=O)OC(C)(C)C)c1ccccc1,-0.28
9,CCC(NC(C)C)C(O)c1ccc(O)c(O)c1 (stereo unspecified) [Isotharine mesylate],-0.958
10,Cc1cc(Nc2ccc(NC(=O)c3ccc(Nc4ccnc5ccccc45)cc3)cc2)nc(N)n1,-15.2
11,CN1C2=CC(=O)/C(=N\NC(N)=O)C=C2CC1S(=O)(=O)O (stereo unspecified) [Carbazochrome sodium sulfonate (AC-17)],-0.411
12,C[C@H](NC(=O)[C@@H](O)c1cc(F)cc(F)c1)C(=O)N[C@@H]1C(=O)N(C)c2ccccc2-c2ccccc21,-4.6
13,CC(C)N(CCCNC(=O)Nc1ccc(C(C)(C)C)cc1)C[C@H]1O[C@@H](n2ccc3c(N)ncnc32)[C@H](O)[C@@H]1O,-2.5 and -4.08
14,C[C@@H]1[C@H](O)[C@@H](C)/C=C/C=C/C=C/C=C/C=C/C=C/C=C/[C@H](O[C@@H]2O[C@H](C)[C@@H](O)[C@H](N)[C@@H]2O)C[C@@H]2O[C@](O)(C[C@@H](O)C[C@@H](O)[C@H](O)CC[C@@H](O)C[C@@H](O)CC(=O)O[C@H]1C)C[C@H](O)[C@H]2C(=O)O [Amphotericin B],3.03
15,CO[C@@]1(NC(=O)CSCC#N)C(=O)N2C(C(=O)O)=C(CSc3nnnn3C)CS[C@@H]21 [Cefmetazole sodium],-0.987
16,CC(C)NC[C@H](O)COc1ccc(CC(N)=O)cc1 [S(-)-Atenolol],-2.26
17,"c1cnc2c(c1)ccc1cccnc12 [1,10-Phenanthroline monohydrate]",-8.94
18,CCOC(=O)C(C)(C)Oc1ccc(Cl)cc1 [Clofibrate],-0.0722
19,O=c1cc(N2CCOCC2)oc2c1ccc1ccccc12,-3.52
20,N[C@H](CO)C(=O)O [D-Serine],-0.752
21,O=C1Cc2cc(CCN3CCN(c4nsc5ccccc45)CC3)c(Cl)cc2N1 [Ziprasidone hydrochloride monohydrate],2.73
22,O=C1Cc2cc(CCN3CCN(c4nsc5ccccc45)CC3)c(Cl)cc2N1 [Ziprasidone HCl],9.9
23,CC(C)/N=c1\cc2n(-c3ccc(Cl)cc3)c3ccccc3nc-2cc1Nc1ccc(Cl)cc1 [Clofazimine],-3.4
24,O=c1cc(-c2ccc(O)c(O)c2)oc2cc(O)cc(O)c12 [Luteolin],-10.4
25,CC(=O)Nc1ccc(NC(=S)NC(=O)c2ccc(C(C)(C)C)cc2)cc1 [Tenovin-1],-3.94
